From US10160705B2, “Class of HDAC inhibitors expands the renal progenitor cells population and improves the rate of recovery from acute kidney injury” (University of Pittsburgh—Of the Commonwealth System of …, priority 2011, dated 2018)

System: PTC-DTR mice
Conditions: mouse, in vivo

## COC(=O)CCCSc1ccccc1 [UPHD-00025, methyl 4-(phenylsulfanyl)butanoate (m4PTB)]
  increase in the rate of renal recovery: approximately 30%
  reduction in peak BUN: 30%
  signs of toxicity: no overt signs of toxicity
